“And” between values parts separate entries of the source, which are not always exact repeats. Identical values can stand only once. The whole screen tested about 390,000 compounds, of which about 4,700 (1.2%) were called active. Inconclusive means that the source gave no clear call. Such entries were picked first, then a sample of the others. Calls come from the whole dose curve; as a rule, active = well fitted inhibition curve with a large enough effect; inconclusive = small, poorly fitted or top-dose-only effect, or another doubt; inactive = no such curve, though single readings can be large or run the other way. A potency beside an inconclusive call is a rough fit, not a confirmed value.
Biological target: DNA polymerase eta (Homo sapiens) (UniProt Q9Y253)
Chain of UniProt Q9Y253 (Q9Y253 whole entry, looked up): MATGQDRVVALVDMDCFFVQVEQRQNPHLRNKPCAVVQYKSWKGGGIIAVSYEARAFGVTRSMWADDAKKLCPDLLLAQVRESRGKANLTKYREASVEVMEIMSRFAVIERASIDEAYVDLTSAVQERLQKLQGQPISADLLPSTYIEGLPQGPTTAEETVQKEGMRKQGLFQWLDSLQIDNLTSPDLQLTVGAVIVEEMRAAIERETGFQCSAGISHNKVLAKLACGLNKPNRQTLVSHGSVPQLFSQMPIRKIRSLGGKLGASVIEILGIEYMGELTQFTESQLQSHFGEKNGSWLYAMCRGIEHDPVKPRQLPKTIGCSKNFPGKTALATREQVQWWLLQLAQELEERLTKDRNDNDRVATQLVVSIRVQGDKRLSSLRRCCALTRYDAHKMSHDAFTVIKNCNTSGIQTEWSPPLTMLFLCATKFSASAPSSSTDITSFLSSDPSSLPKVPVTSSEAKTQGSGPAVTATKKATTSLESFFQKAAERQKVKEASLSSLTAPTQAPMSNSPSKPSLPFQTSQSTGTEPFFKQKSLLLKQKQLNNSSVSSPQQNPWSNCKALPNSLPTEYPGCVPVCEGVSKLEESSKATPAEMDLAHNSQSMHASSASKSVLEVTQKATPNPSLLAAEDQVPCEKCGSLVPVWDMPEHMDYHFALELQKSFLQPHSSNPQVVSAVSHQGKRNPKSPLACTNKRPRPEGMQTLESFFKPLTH
Assay: qHTS for Inhibitors of Polymerase Eta
Conditions: recombinant Pol eta, fluorescent DNA replication assay; series mostly up to 114 µM; activity change, negative = inhibition: at the top concentration
How it was run: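 Pol eta at 10 nM preincubated with compounds 15 min at room temperature; reaction started with fluorescent substrate (50 nM final) and read kinetically at 0 and 10 min.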
% is set by controls: 0 for no effect and ±100 for the full control effect; potency is the fitted concentration of half-maximal effect; tags give direction and shape of the fitted curve.

Row | SMILES | Potency | activity change, negative = inhibition
1 | Cc1ccc(/C=C2\C(=N)N3N=C(CC(=O)N4CCOCC4)SC3=NC2=O)o1 | active: 28.2 µM | –
2 | Cc1ccc(-c2csc(NNC(=O)c3ccccc3)n2)cc1 | inconclusive: 89.1 µM [inhibitor, partial curve, poor fit] | –
3 | O=C(CCCSc1nc(-c2ccco2)cc(C(F)(F)F)n1)NCc1cccs1 | inconclusive: 15.8 µM [inhibitor, partial curve, poor fit] | –
4 | COc1cc(C(=O)NCCSc2ccccc2)cc(OC)c1OC | – | inactive: -10.8%
5 | C[C@H](CO)N1C[C@H](C)[C@@H](CN(C)C(=O)Nc2ccc(C(F)(F)F)cc2)Oc2c(NC(=O)Cc3ccccc3)cccc2C1=O | inconclusive: 79.4 µM [inhibitor, partial curve, poor fit] | –
6 | OCCC1CN(Cc2cccn2-c2ncccn2)CCN1C1CCCC1 (stereo not given) | – | inactive: 0.805%
7 | CCN(CC)CCC(=O)N1C/C(=C/c2ccccc2)C(=O)/C(=C\c2ccccc2)C1 | inconclusive: 35.5 µM [inhibitor, partial curve, poor fit] | –
8 | COc1ccc(/C=C2/SC(=S)NC2=O)cc1OCc1ccccc1 | inconclusive: 28.2 µM [inhibitor, partial curve, poor fit] | –
9 | O=C(CSc1nc2[nH]c(=O)cc(O)c2s1)NCCc1ccccc1 | inconclusive: 31.6 µM [inhibitor, partial curve, poor fit] | –
10 | CC(OC(=O)/C(C#N)=C/c1ccco1)C(=O)N(C)c1ccccc1 (stereo not given) | inconclusive: 14.1 µM [inhibitor, full curve, poor fit] | –
11 | CCn1cc(C(=O)O)c(=O)c2cc(F)c(N3CCN(C(=S)NC(=O)c4cccc(F)c4)CC3)cc21 | – | inactive: -17.3%
12 | c1ccc(-c2nc(-c3ccccn3)no2)cc1 | – | inactive: 2.88%
13 | C=CCn1c(SCC(=O)/C(C#N)=C(\C)N)nc2sc(CC)cc2c1=O | inconclusive: 22.4 µM [inhibitor, partial curve, poor fit] and inconclusive: 39.8 µM [inhibitor, partial curve, poor fit] | –
14 | CC(=O)c1cccc(S(=O)(=O)NC2CC2)c1 | inconclusive: 89.1 µM [inhibitor, partial curve, poor fit] | –
15 | CC1=NN(c2ccccc2)C(=O)/C1=C\c1ccc(Oc2ccc([N+](=O)[O-])cc2[N+](=O)[O-])cc1 | active: 50.1 µM | –
16 | O=C(N/N=C/c1ccccc1)c1ccc(CN2C(=O)c3cccc4cccc2c34)cc1 | inconclusive: 6.31 µM [inhibitor, full curve, poor fit] | –
17 | O=C(Cc1ccc(Cl)cc1)Nc1ccc(-c2nnc(-c3ccco3)o2)cc1 | inconclusive: 89.1 µM [inhibitor, partial curve, poor fit] | –
18 | Cc1cc(SCC(=O)c2ccccc2)nc(=O)[nH]1 | inconclusive: 79.4 µM [inhibitor, partial curve, poor fit] | –
19 | CCOc1ccccc1N1CCN(C(=O)c2ccc3[nH]c4c(c3c2)CCCC4)CC1 | inconclusive: 70.8 µM [inhibitor, single point] | –
20 | O=c1cc(O)c2sc3nc(-c4ccccc4)cc(C(F)(F)F)c3c2[nH]1 | inconclusive: 25.1 µM [inhibitor, single point] | –
21 | COc1cc(/C=C2\C=CC(=O)O2)cc(OC)c1 | – | inactive: -12.7%
22 | O=C(CCc1nc2sc3c(c2c(=O)[nH]1)CCCC3)NCCc1ccc(F)cc1 | inconclusive: 56.2 µM [inhibitor, partial curve, poor fit] | –

Row | SMILES | Potency | activity change, negative = inhibition
23 | Cc1ccc(-c2cc(C(=O)Nc3cccnc3)c3ccccc3n2)o1 | active: 44.7 µM | –
24 | CC(=O)Nc1nonc1-c1nnc(SCc2ccccc2Cl)n1C | – | inactive: 0.446%
25 | COC(=O)c1ccc(NC(=S)NCCc2ccccc2C)cc1 | inconclusive: 79.4 µM [inhibitor, partial curve, poor fit] | –
26 | CCOc1cc(/C=N/Nc2ccccc2Cl)ccc1OCC(=O)O | inconclusive: 39.8 µM [inhibitor, single point] | –
27 | O=C(Cn1ncc2c3ccccc3n(Cc3cccc(Cl)c3)c2c1=O)N1CCCCCC1 | – | inactive: -19.9%
28 | CCOC(=O)/C(C#N)=C/c1c(N2CCN(c3ccccc3)CC2)nc2c(C)cccn2c1=O | inconclusive: 100 µM [inhibitor, partial curve, poor fit] | –
29 | Cc1ccc(C(=O)O)cc1NC(=S)NC(=O)c1ccc(-c2ccc(Cl)cc2)o1 | active: 50.1 µM | –
30 | CCc1ccc(NC(=O)c2sc3nc(C)cc(C)c3c2NC(=O)c2ccccc2OC)cc1 | – | inactive: -5.4%
31 | Brc1ccccc1-c1nnc(SCc2nc3ccccc3s2)o1 | inconclusive: 89.1 µM [inhibitor, partial curve, poor fit] | –
32 | Cc1ccc(NC(=O)N2CCC(C(=O)Nc3ccc(C)cc3C)CC2)cc1 | inconclusive: 17.8 µM [inhibitor, full curve, poor fit] | –
33 | COC(=O)Cc1[nH]nc2c1C(c1ccc(O)c(OC)c1)C(C#N)=C(N)O2 (stereo not given) | active: 44.7 µM | –
34 | Cc1cccc(OCCn2c(-c3ccc(Cl)cc3)nc3ccccc3c2=O)c1C | – | inactive: -3.52%
35 | Cc1cccc(N=C2CSC(=O)N2)c1 | – | inactive: 0.548%
36 | COc1ccc(NC(=O)c2nnn(CC(=O)Nc3ccc4c(c3)OCO4)c2N)cc1OC | inconclusive: 50.1 µM [inhibitor, partial curve, poor fit] | –
37 | O=C(CCN1C(=O)/C(=C/c2cccc(Br)c2)SC1=S)Nc1cccnc1 | inconclusive: 22.4 µM [inhibitor, full curve] | –
38 | CCn1nc(C)cc1C(=O)N1CCCC(N2CCN(c3ccccc3OC)CC2)C1 (stereo not given) | inconclusive: 50.1 µM [inhibitor, partial curve, poor fit] | –
39 | N#Cc1ccc(C(=O)N(Cc2ccccc2)c2ccccc2)cc1 | – | inactive: -21.6%
40 | CCOc1ccc(NC(=O)Cn2c(=O)cc(C)c3c(C)nn(-c4ccc(CC)cc4)c32)cc1 | – | inactive: -6.08%
41 | O=C(O)C1CN(CCCP(=O)(O)O)CCN1 (stereo not given) | – | inactive: 2.82% [at 57.1 µM]
42 | Cc1cccc(/C=C/C(=O)c2ccc([N+](=O)[O-])o2)c1 | inconclusive: 56.2 µM [inhibitor, partial curve, poor fit] | –
43 | O=C(/C=C/c1ccnc2ccccc12)c1cccs1 | inconclusive: 79.4 µM [inhibitor, partial curve] | –
44 | CCc1cccc(NC(=O)COc2cc(=O)n(CC)c3ccccc23)c1 | – | inactive: -6.26%

Row | SMILES | Potency | activity change, negative = inhibition
45 | Cc1ccc2c(c1)[C@H]1[C@H](CO2)[C@H](c2ccccc2)[C@]2(C)C(=O)N(Cc3ccco3)CC(=O)N12 | inconclusive: 31.6 µM [inhibitor, partial curve, poor fit] | –
46 | Cc1ccccc1NC(NC(=O)c1cccs1)C(Cl)(Cl)Cl (stereo not given) | inconclusive: 39.8 µM [inhibitor, partial curve, poor fit] | –
47 | CSc1cccc(N2CC(C(=O)N(CC(C)C)c3c(N)n(Cc4ccccc4)c(=O)[nH]c3=O)CC2=O)c1 (stereo not given) | active: 25.1 µM | –
48 | Cc1scc(C(=O)NCc2ccco2)c1-c1ccccc1 | inconclusive: 89.1 µM [inhibitor, partial curve] | –
49 | CC(=O)[C@H]1[C@@H]2C(=O)N(c3cccc(Cl)c3)C(=O)[C@@H]2[C@H]2c3ccccc3C=CN21 | inconclusive: 25.1 µM [inhibitor, partial curve, poor fit] | –
50 | NC1=NC(=O)S/C1=C\c1ccc(O)cc1 | inconclusive: 15.8 µM [inhibitor, full curve, poor fit] | –
51 | O=C(N/N=C/C=C/c1ccco1)c1cnccn1 | inconclusive: 15.8 µM [inhibitor, full curve, poor fit] | –
52 | CC(=O)C1=C(c2ccccc2)NC(=S)NC1c1ccc(O)c(O)c1 (stereo not given) | inconclusive: 25.1 µM [inhibitor, partial curve, poor fit] | –
53 | CCc1nnc(NS(=O)(=O)c2ccc(NC(=O)/C=C/c3ccc(OC)cc3OC)cc2)s1 | inconclusive: 50.1 µM [inhibitor, partial curve, poor fit] | –
54 | Cc1ccc(C(=O)Nc2oc(-c3ccccc3)cc2C#N)cc1 | inconclusive: 31.6 µM [inhibitor, single point] | –
55 | CCOCCCNC(=S)N1CCN(c2nc(-c3ccccc3)cs2)CC1 | inconclusive: 100 µM [inhibitor, single point] | –
56 | CC(C)N1CCN(S(=O)(=O)c2ccc3ccccc3c2)CC1 | – | inactive: -13.9%
57 | O=C(Cn1c(=O)n(-c2ccccc2Cl)c(=O)c2sc3ccccc3c21)NC1CCCC1 | – | inactive: -15.7%
58 | COc1ccc(C(C)=O)cc1COC(=O)c1cnc(C)cn1 | inconclusive: 0.631 µM [inhibitor, full curve, poor fit] | –
59 | C#CCN(C(=O)c1cc(COc2cccc(C(F)(F)F)c2)on1)C1CCCCC1 | inconclusive: 50.1 µM [inhibitor, full curve, poor fit] | –
60 | C[C@@H]1CC[C@]2(C(=O)O)CC[C@]3(C)C(=CCC4[C@]56CC[C@@](O)(OC5)C(C)(C)C6CC[C@]43C)C2[C@H]1C (stereo not given in full) | inconclusive: 89.1 µM [inhibitor, single point] | –
61 | C=CCOc1ccc(C(c2c(C(=O)O)[nH]c3ccccc23)c2c(C(=O)O)[nH]c3ccccc23)cc1 | active: 31.6 µM | –
62 | COc1cc(OC)cc(N2C(=O)CC(N3CCC(C(=O)N4CCCCC4)CC3)C2=O)c1 (stereo not given) | inconclusive: 28.2 µM [inhibitor, partial curve] | –
63 | CCOC(=O)c1cnc2ccc(C)cc2c1Sc1ccccc1C(=O)OC | inconclusive: 50.1 µM [inhibitor, partial curve, poor fit] | –
64 | Cc1ccc(-c2csc(NC(=O)c3c(C)noc3C)n2)cc1 | – | inactive: -3.78%
65 | COc1ccc(-n2nnnc2-c2nc3ccccc3s2)cc1 | inconclusive: 20 µM [inhibitor, partial curve, poor fit] | –

From PubChem BioAssay AID588591 (National Center for Advancing Translational Sciences (NCATS), 2011)
